Target: fibrillin-1 (UniProt P35555)
Sequence of UniProt P35555 (P35555 whole entry, looked up): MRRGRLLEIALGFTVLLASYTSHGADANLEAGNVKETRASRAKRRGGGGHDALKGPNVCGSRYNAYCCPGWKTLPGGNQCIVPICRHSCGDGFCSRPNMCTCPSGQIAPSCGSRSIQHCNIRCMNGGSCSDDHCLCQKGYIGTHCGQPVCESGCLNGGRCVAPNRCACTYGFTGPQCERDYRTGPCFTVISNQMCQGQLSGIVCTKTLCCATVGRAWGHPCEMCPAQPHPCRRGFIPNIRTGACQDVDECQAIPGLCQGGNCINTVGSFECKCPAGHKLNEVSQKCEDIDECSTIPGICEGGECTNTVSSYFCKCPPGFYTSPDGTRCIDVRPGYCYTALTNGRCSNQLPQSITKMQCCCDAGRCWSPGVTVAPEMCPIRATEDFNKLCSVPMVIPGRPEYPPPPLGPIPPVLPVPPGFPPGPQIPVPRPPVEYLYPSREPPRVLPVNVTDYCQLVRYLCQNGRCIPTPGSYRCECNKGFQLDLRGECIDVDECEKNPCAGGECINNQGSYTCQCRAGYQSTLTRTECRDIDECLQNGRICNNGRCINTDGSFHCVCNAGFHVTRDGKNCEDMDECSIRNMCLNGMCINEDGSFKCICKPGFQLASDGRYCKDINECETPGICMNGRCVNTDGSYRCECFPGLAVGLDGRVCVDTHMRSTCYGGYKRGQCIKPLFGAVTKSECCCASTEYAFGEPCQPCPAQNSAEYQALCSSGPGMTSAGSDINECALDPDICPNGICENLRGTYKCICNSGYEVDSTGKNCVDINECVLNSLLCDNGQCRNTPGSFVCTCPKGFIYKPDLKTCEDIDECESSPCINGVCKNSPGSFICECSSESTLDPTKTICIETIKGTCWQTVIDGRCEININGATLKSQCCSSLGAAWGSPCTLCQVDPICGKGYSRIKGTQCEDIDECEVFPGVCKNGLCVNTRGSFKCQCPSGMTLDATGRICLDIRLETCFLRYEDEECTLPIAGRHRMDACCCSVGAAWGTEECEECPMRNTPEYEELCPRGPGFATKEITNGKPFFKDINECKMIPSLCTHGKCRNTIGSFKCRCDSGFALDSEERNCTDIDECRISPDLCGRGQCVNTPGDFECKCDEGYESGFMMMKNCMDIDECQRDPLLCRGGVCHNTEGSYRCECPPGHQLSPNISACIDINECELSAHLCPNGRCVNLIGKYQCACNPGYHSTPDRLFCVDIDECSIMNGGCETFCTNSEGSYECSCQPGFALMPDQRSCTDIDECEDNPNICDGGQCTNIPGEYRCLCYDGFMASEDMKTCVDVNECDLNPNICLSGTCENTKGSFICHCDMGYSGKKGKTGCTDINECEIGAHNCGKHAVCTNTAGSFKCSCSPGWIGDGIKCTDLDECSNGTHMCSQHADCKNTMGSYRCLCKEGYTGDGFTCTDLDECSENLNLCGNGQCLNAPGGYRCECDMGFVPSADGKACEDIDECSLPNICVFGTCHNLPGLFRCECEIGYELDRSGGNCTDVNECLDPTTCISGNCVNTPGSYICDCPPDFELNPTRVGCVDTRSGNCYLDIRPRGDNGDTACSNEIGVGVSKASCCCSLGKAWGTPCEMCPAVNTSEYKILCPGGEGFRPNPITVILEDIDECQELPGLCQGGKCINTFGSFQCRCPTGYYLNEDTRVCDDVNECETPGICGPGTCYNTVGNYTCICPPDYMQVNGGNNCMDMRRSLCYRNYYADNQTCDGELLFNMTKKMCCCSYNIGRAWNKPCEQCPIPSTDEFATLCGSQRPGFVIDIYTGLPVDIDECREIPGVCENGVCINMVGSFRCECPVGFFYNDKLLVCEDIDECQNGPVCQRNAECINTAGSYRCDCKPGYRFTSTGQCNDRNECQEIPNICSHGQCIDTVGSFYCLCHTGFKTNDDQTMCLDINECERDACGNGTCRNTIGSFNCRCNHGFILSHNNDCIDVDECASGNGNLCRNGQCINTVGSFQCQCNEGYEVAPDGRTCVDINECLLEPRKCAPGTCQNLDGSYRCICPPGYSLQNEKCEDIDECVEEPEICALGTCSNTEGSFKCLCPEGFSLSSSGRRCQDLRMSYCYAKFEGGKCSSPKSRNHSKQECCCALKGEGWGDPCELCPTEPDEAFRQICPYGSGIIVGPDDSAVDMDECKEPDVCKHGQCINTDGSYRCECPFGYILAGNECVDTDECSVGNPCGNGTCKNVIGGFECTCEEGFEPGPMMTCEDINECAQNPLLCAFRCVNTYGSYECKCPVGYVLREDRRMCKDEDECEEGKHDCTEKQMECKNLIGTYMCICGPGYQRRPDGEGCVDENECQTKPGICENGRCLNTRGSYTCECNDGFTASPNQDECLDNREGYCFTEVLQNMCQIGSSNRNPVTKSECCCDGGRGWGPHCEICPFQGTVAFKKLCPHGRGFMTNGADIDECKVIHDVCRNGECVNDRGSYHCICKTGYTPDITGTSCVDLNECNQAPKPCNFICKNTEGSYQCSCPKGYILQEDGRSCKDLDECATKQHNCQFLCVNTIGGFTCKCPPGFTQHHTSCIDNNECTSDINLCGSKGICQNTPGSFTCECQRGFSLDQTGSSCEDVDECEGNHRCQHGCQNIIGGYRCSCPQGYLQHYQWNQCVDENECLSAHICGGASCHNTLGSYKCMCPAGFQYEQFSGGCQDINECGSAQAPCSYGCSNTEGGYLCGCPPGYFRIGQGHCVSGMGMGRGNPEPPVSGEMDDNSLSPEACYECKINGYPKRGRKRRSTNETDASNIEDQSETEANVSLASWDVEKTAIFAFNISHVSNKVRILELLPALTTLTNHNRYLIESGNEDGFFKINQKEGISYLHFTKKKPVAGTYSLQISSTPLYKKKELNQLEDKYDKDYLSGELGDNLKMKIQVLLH

Substance: Granzyme B (letters omitted)
- cleavage fragments, fibrillin-1 Western blot of supernatant and ECM: showed fibrillin-1 cleavage fragments in the GrB supernatant, GrB ECM

Reference: patent US8715948
